Out of some 48,000 compounds screened, about 450 (0.94%) were called active. Another 19% or so got no clear call; they are omitted. The call rests on the fitted dose curve; in most records, active means well fitted inhibition curve with a large enough effect; inconclusive means small, poorly fitted or top-dose-only effect; inactive means no such curve, though single readings can be large or run the other way. The list shows a part of the results.
Assay: Primary qHTS for Identification of Small Molecule Inhibitors of Huntingtin Promoter Activity; further: nearly all actives have a fitted effect of over 50% in size
Conditions: HEK293 HTT promoter firefly luciferase reporter (activity 0% = vehicle and -100% = no light), 24 h; series mostly up to 57.5 µM; activity change, negative = inhibition: at the top concentration
Procedure, shortened: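 Luminescence was read after Dual-Glo reagent and a 10 min room-temperature incubation. Values were normalized to vehicle (0% activity) and zero RLU (-100% activity). Reporter HEK293 cells had been exposed to compounds (up to 57.5 uM final) for 24 h.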

Activity change, negative = inhibition, inactive:
CCOC(=O)c1c(C)oc2nc(C)nc(NCc3cccc(Cl)c3)c12 -10%
O=C(c1cccc(Cl)c1)n1nc(-c2cccnc2)nc1NCc1ccccc1 -18.2%
CCOC(=O)C1=C(N)Oc2ccc(Br)cc2C1C(C#N)C(=O)OCC (configuration not stated) 11.6%
CCOC(=O)c1nc(Nc2ccc(C(=O)OC)cc2)c2ccccc2n1 -19.2%
CSCCC(NS(=O)(=O)c1ccc2c(c1)oc(=O)n2C)C(=O)N1CCN(c2ccc(C(C)=O)cc2)CC1 (configuration not stated) -5.12%
COc1cccc(C(=O)NCC(=O)OCc2cc(=O)n3ccsc3n2)c1 -13.4%
CCc1ccccc1NC(=O)c1ccc(=O)n(Cc2ccc(F)cc2)c1 -14%
CCc1ccc(-n2c(=O)c3cccnc3n2CC(=O)Nc2cc(OC)ccc2OC)cc1 1.28%
COc1cc(OC)cc(C(=O)Nc2nnc3n2CCS3)c1 0.745%
Cc1ccc(C(=O)Nc2nc(-c3nnn(-c4cccc(C(F)(F)F)c4)c3C)ns2)cc1 -25.8%
Cc1ccc(CCNC(=O)c2cn(C)c3ccc(S(=O)(=O)N4CCC(C)CC4)cc3c2=O)cc1 0.608%
Cc1cc(C)c(NC(=O)CCCn2c(C)c3cnn(-c4ccccc4)c(=O)c3c2C)c(C)c1 -27.5%
CC(C)CC(=O)Nc1nnc(SCc2cc(=O)n3ccccc3n2)s1 -5.25%
CCOC(=O)c1c(S(=O)(=O)NCC(=O)Nc2ccc(F)cc2C)c(C)n(C)c1C -6.46%
COc1cc(OC)cc(-c2nc3nc(C)c(CCC(=O)NCCC(C)C)c(C)n3n2)c1 0.0846%
O=c1c(S(=O)(=O)c2cccc(Cl)c2)cn(Cc2ccccc2)c2cc(N3CCCCC3)c(F)cc12 -10.1%
COc1ccccc1NC(=O)CN1C(=O)CSc2ccc(S(=O)(=O)N3CCCC3)cc21 -9.82%
CCn1ccc2cc(S(=O)(=O)N3CCC(C(=O)NCCc4ccccc4)CC3)ccc21 0%
CC(=O)C1=C(c2ccc(Br)cc2)N(C(C)=O)n2c(nnc2C2CCCCC2)S1 -15.8%
COc1cc(OC)c(NC(=O)c2c(C)oc3nc(C)nc(N4CCOCC4)c23)cc1Cl 1.13%
COc1cccc(-n2cc(C(=O)OCc3ccc(Cl)cc3)c3ccccc3c2=O)c1 -24.3%
Cc1cccc(CNC(=O)c2ccc(C)c(-n3c(C)nc4cccnc43)c2)c1 -14%
CCOc1ccc(-n2c(=O)c3c(C)c(C)sc3n(CC(=O)N3CCC(C)CC3)c2=O)cc1 -4.57%
O=C(NCc1ccccc1Cl)c1ccc(Cn2c(=O)c3cccn3c3cccnc32)cc1 -11.6%
COCCCNC(=O)c1cnn(-c2ccc(F)cc2F)c1C1CCNCC1 -13.9%
COc1cc([C@H]2Oc3cc([C@H]4Oc5cc(O)cc(O)c5C(=O)[C@@H]4O)ccc3O[C@@H]2CO)ccc1O 0.239%
Cc1ccc2nc(NC(=O)c3nc(SCc4ccccc4C)ncc3Cl)sc2c1 -9.11%
O=C(O)CCc1nnc2cnc3ccccc3n12 1.38%
Cc1ccc2ncc(C(=O)NC(C)c3ccccc3)c(=O)n2c1 (configuration not stated) -5.86%
CC(=O)N1CCC2(CC1)OC(=O)C(C)=C2C(=O)NCc1cccc(Cl)c1 -21%
Cc1ccc(N2C(=O)CS(=O)(=O)C23C(=O)N(C)c2ccccc23)cc1F (configuration not stated) -19.5%
Cc1ccc(N2CCN(C(=O)c3c(C)oc4ncnc(N5CCOCC5)c34)CC2)c(C)c1 -9.68%
COc1cc(NC(=O)NCC2CCN(Cc3ccc(C)cc3)CC2)cc(OC)c1OC -21.7%
Cc1ccc(C(=O)Nc2nnc(S(=O)(=O)N3CCN(c4ccc(F)cc4)CC3)s2)cc1 22.1%
C[N+](C)(C)CC(O)CC(=O)[O-] (configuration not stated) 0.119%
Cc1ccc(CNC(=O)c2cnc3c(-c4ccccc4)c(C)nn3c2C)o1 -13.8%
O=[N+]([O-])c1cc(-c2nc(-c3ccccn3)no2)ccc1NCc1ccccc1 33.4%
COCCCNC(=O)CCC(=O)NNc1nc2ccccc2c2nc(-c3ccccc3)nn12 -7.12%
O=C(NCCc1ccccc1)C(=O)NCC(c1ccco1)S(=O)(=O)c1ccccc1 (configuration not stated) -20.5%
COCCNC(=O)CSc1nc2cc3c(cc2c(=O)n1Cc1ccc(C(=O)NCCc2ccc(OC)c(OC)c2)cc1)OCO3 -14.8%
CCOc1ccc(NC(=O)CSc2nnc(-c3ccncc3)n2-c2ccccc2)cc1 9.22%
Nc1c[n+](N2CCOCC2)no1 -2.16%
COc1ccc(CNC(=O)c2ccc(CSc3nc4ccncc4n3Cc3ccccc3F)cc2)cc1 -20.2%
CCOc1ccc(Nc2ncnc3c2cnn3-c2ccc(F)cc2)cc1 8.66%
CCOC(=O)C(=O)Nc1nnc2n1CCS2 -8.94%
COc1ccc(NC(=O)Cn2c(=O)n(Cc3ccccc3)c(=O)c3oc4ccccc4c32)cc1Cl 5.97%
Cc1nc2c(C(=O)NCc3ccccc3Cl)cnn2c(C)c1Cc1ccccc1 4.63%
Cn1cc(S(=O)(=O)N2CCCCC2)cc1C(=O)N1CCN(c2ccccc2F)CC1 -16%
COc1cccc(-c2csc(-c3c(N)c(C(=O)c4ccccc4)n4ccccc34)n2)c1 4.6%
O=C(CSc1nc2c([nH]c3ccccc32)c(=O)n1-c1ccc(Cl)cc1)N1CCCCCC1 -5.99%
Cc1nc2n(c(=O)c1CCN1CCC(c3noc4cc(F)ccc34)CC1)CCC[C@H]2O 4.06% [at 25.2 µM]
CCOC(=O)c1ccccc1NC(=O)Cn1c(=O)n(CCCC(=O)NCc2ccc3c(c2)OCO3)c(=O)c2ccccc21 -5.79%
CCCCOc1cc(C(=O)OCCN(CC)CC)ccc1N -8.94%
CCc1ccc(-c2nc(CN3CCCC(C(=O)NCc4ccc(C)cc4)C3)c(C)o2)cc1 (configuration not stated) -5.18%
CN1CCN(N)CC1 -0.385%
COc1ccc(-c2cc3nc(C)c(CCC(=O)Nc4cccc(C(F)(F)F)c4)c(C)n3n2)c(OC)c1 -22.7%
Cc1ccnc(NC(=O)c2c(C)oc3ncn(CC(C)C)c(=O)c23)c1 81.5%
Cc1ccc(CNC(=O)Nc2cn(CC(C)C)c(=O)c3ccccc23)cc1 -15.5%
CN(C(=O)Cn1cc(S(=O)(=O)N2CCN(c3ccccc3F)CC2)c2ccccc2c1=O)c1ccc(Cl)cc1 0.758%
COCC(C)NC(=O)c1cnn2c(C(F)F)cc(-c3ccccc3)nc12 (configuration not stated) -11.4%
Clc1ccc2nsnc2c1NC1=NCCN1
Cc1cc(C)c(NC(=O)CN2c3ccccc3S(=O)(=O)c3ccccc32)c(C)c1 -29.2%
